Experimental data taken from article PMC12262889.
No constants are given. Whether binding was seen depends on the method and setting. Binding seen in cells or lysates may run through a third protein. Some entries that bind do so weakly or less than the wild type. Sequences can lack the tags named with a protein.

Protein sequences, listed by entry. Tags and fused reporters are not part of them.
UniProt P14126: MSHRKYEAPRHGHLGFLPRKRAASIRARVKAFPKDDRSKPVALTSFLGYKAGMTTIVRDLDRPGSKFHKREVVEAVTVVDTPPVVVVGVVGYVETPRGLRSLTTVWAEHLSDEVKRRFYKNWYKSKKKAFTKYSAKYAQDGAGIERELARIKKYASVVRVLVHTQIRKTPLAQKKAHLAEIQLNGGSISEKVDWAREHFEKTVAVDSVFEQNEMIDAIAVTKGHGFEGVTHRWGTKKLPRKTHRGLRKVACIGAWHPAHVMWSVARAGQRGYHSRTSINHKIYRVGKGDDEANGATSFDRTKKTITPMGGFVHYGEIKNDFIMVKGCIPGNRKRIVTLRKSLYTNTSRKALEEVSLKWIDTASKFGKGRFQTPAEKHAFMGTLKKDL

Key:
[1] = molecular target: ribosomal protein Rpl3 (S. cerevisiae) (UniProt P14126); assay: co-sedimentation; 5-45% sucrose continuous-density gradients of log phase Clu1-GFP lysates without cross-linking, with CHX (polysome-preserving) or CHX followed by RNase A (polysome-disrupting); immunoblot of fractions for Clu1-GFP and Rpl3
[2] = molecular target: ribosomal protein Rpl3 (S. cerevisiae) (UniProt P14126); assay: co-sedimentation; 5-45% sucrose gradients after in vivo cross-linking with 1% formaldehyde (20 min, room temperature); log phase, PD phase, galactose + CCCP, galactose + CCCP + glucose; lysates with or without RNase A; immunoblot of fractions for Clu1-GFP and Rpl3

B1: Clu1-GFP (protein, UniProt Q03690 1-1277)
chain: MSEKKEEVKNATVKVTVKLPKEDNHSHNTKHLKKTQSSKNNDISFEIGKESKIQTVLDVLAMIPSSKYLTNVGLKTIEGDSQLSDEMSIKEIVGEKSELKLQLILKPYSAREALKHVITVRDFIGFAQETSDGLSEFAISTGSSFSSLPLGPIKERSKQEEKDEKSDPEEKKNTFKDVTDEEKLKFNEMVHEVFSSFKNSSINKLLTSESNIITPCVRSLSFAPYNPVPPFYRSKGHLFYLQIVTLEGESFYITAIPSGFYVNKSNSTKFDPSPKENTDENAHSSLIYYSLFDLIASRSKKFISHVQAFEKKLSALDSTSYVRPSNTFLHKPWFVSSLPPNNPDYLRLQTAALDTTPERNFNDEFQAIKDLTTSTLQDRIEMERLFSKVVHEFSVTAASGAMSIFYSDFVAMNPESPTRDQIFLKDNIFYSYVSDVSGNYEGKGGDEAAIAASNQDLKTINILNRLHMHEVRYLLTTVVEFAGRRILAQTPVPGLLATMGNKIVKDANTGEEVTEDFVNDINVKYGLDEGLGKIVYDADFDSVLEKKFVKAFHLKKHKVNGTELAFSSQSKGIVGFDKRRYILDLANTYPLDINFARQNFDNIEETGNRYPHRQTLLRPELVEKWWNNKVEKEGVEFEKAYEENLFSYNPDAYQVEGIEDANVDEMSNYLQKEVIPSVIQDYLSGNLSTPYNGEHLADTLHKNGINMRYLGKIIELSQKELDSQIVHYEQNLKAVEQDNKEYEDWEKSYLQKIENMIKERQAKINKLVQEGKEVPKELTEDLKLNDEEIKKPTDGKPVVVAYDELVPLIKISELEIVSRSLKHVLKDLSKDVPVFLVPSLVAYVFNMLVGINYNADPKPEPVDEFYPVNKCSFAKLTRSELLEAVSKQAFLRFRHQLPSNWIEAYMENPFTLIRSVSYKFGIQLLNKEYFFTREQLESYKQSLDKKIRNKFVEPPTTFSLSDLTIIPRVKFSEYTSSVSEEFWAQGASMINEDKQSALTLLAQSITVLEDVNNILHPAVAEKYLSLSAIYNKLALYPEAIAFCRKACTIYERVSGIDSFEMMRALTNLAILEFSNESPYNATVVYNRLAEILKVYELPKIHHPAPTSIFNHLEQLALGVQDTKLAIEVLGQLSSYVVELEGKDSLAYGYTESRLGNLFAALKDFHRALEHITVTQGIFTKQLGMNHTHSAQSRQWVNGLSSLIMDLKQKKQLAQDQMSTTGSNSAGHKKTNHRQKKDDVKPELANKSVDELLTFIEGDSSNSKSKNKTNNKKKHGKK
[1]
  binding: binds
[2]
  binding: binds
